Hit rate of the full screen: of about 310,000 compounds, about 14,000 (4.5%) showed an effect of 50% or more. The effect is printed as a negative number. The list shows a part of the results.
biological target: human ether-à-go-go-related gene (hERG) potassium channel (human, UniProt Q12809); assay: primary screen, population patch clamp on CHO cells stably expressing hERG
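Note: peak tail current of the secondary pulse compared with the same well before compound.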

Chain of human ether-à-go-go-related gene (hERG) potassium channel (Q12809 whole entry, looked up): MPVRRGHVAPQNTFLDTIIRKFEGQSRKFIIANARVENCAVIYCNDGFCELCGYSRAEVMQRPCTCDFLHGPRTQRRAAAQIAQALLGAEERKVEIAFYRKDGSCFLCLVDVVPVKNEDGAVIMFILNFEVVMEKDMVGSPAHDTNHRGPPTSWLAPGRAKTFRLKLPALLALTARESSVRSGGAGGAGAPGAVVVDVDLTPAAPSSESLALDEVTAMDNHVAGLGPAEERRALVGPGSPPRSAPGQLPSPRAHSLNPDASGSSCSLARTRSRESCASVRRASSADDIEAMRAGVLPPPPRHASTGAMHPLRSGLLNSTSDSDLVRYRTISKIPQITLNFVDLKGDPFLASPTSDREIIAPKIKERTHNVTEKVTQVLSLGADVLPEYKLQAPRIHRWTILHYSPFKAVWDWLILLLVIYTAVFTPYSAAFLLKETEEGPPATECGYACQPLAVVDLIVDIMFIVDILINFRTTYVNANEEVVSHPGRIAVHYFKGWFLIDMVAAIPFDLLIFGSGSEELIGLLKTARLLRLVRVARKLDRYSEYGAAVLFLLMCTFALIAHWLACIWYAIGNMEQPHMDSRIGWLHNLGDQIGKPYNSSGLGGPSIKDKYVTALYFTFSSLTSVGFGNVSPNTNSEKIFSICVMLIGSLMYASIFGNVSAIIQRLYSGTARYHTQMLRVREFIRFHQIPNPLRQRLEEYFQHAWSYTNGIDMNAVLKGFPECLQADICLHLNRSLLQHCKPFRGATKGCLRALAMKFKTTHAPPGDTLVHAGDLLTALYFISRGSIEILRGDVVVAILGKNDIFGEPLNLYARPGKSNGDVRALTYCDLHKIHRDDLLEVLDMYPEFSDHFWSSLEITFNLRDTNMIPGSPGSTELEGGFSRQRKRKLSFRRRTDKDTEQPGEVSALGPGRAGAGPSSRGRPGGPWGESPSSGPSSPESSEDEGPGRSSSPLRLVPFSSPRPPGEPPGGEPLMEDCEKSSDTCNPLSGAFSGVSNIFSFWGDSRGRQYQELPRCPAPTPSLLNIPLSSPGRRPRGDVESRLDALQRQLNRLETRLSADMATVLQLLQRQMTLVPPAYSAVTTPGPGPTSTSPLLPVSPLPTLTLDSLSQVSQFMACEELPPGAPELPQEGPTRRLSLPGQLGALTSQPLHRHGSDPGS

Compound	hERG current change (%, negative = inhibition) at 10uM
O=C(c1ccco1)N1CCN(C(=O)C(c2ccccc2)c2ccccc2)CC1	-23.4%
O=C1NC(c2ccc(-c3ccccc3[N+](=O)[O-])o2)C(C(=O)c2ccccc2)C(O)(C(F)(F)F)N1 (stereo not drawn)	-10%
CC1CCCN(C(=O)CN2C(=O)CSc3ccc(S(=O)(=O)N4CCOCC4)cc32)C1 (stereo not drawn)	3.68%
CCOC(=O)N1c2ccccc2C=CC1OCC (stereo not drawn)	19.3%
COc1cc(C)nc(NC(=O)COc2ccc(Cl)cc2C)n1	2.34%
CCC(CC)C(=O)Nc1nnc(S(=O)(=O)N2CCCC2)s1	-6.42%
Nc1ccc(-c2nnc(-c3ccc(-c4ccccc4)cc3)o2)cc1	4.31%
COc1cc(C(=O)Nc2nc(-c3ccc(C)cc3)cs2)ccc1OCC(=O)N1CCOCC1	-18.9%
Cn1c(SCc2nc3ccccc3n2CCO)nc2ccccc21	-5.04%
NS(=O)(=O)c1cccc(NC(=O)CSc2nnc(C3CC3)n2Cc2ccccc2)c1	-2.84%
COc1ccc(C(CC(=O)O)NC(=O)Nc2ccccc2)cc1OC (stereo not drawn)	7.84%
CN(C)/C=c1\sc2c(C#N)cc(C(=O)c3ccc(Br)cc3)n2c1=O	-12.5%
C=CCN(CC=C)Cc1c(O)ccc2c1oc(=O)c1ccccc12	-71.6%
Cc1ccc(-n2nc3c(=O)n(CC(=O)c4ccc(F)cc4)nc(C)c3c2C)cc1	-7.19%
CC1CCCCN1C(=O)NC1CC(=O)N(c2ccc3c(c2)OCCO3)C1 (stereo not drawn)	5.7%
Cc1ccc(Cl)cc1N1CCN(C(=O)CSc2ccsc2[N+](=O)[O-])CC1	0.335%
CC(C)(C)OC(=O)[C@H](Cc1ccccc1)NC(=O)c1nc[nH]c1C(=O)NC1CCN(C(=O)OC(C)(C)C)CC1	4.55%
CCN1CCN(C(=O)c2cc3nc(-c4ccccc4)cc(C(F)(F)F)n3n2)CC1	-22%
CC(C)Nc1ccc(C(CC(N)=O)NC(=O)Cc2ccc(Br)cc2)cc1[N+](=O)[O-] (stereo not drawn)	0.496%
COc1ccc(OC)c(S(=O)(=O)NCCCn2ccnc2)c1	9.36%
Cc1cccc(C(=O)Oc2ccccc2/C=N/Nc2ccc([N+](=O)[O-])cc2)c1	10.3%
CC1CCC(C(=O)NC(C(=O)NCc2ccccn2)C(C)C)CC1 (stereo not drawn)	2.73%

Compound	hERG current change (%, negative = inhibition) at 10uM
CCCNCc1cc(OCC)c(OCC(N)=O)cc1Br	11.2%
CCOC(=O)c1sc(NC(=O)C(C)Sc2nc(N)cc(=O)[nH]2)nc1C (stereo not drawn)	2.51%
O=C(CCCN1C(=O)/C(=C/c2cccc(Br)c2)SC1=S)NCCCN1CCOCC1	-18.1%
O=C(C1CCN(c2nnc(-n3cccc3)s2)CC1)N1CCN(c2cccc(C(F)(F)F)c2)CC1	-22.8%
CC(C)c1ccc(Nc2nc(Cl)nc(Cl)n2)cc1	19.1%
CCOC(=O)C1(Cc2cccc(OC)c2)CCCN(Cc2cnn(C)c2)C1 (stereo not drawn)	-3.67%
CCOc1ccc2nc(SCC(=O)Nc3ccc4[nH]c(=O)[nH]c4c3)[nH]c2c1	27%
COc1ccc2c(c1)CC(C(=O)Nc1ccc(Cl)cc1)/C(=N/O)O2 (stereo not drawn)	20.8%
CC(Sc1nncn1C)C(=O)Nc1nnc(-c2ccccc2)s1 (stereo not drawn)	9.54%
CCOc1ccc(OCCCN(C)C)cc1	4.13%
CN(C)c1ccc(C(C#N)c2ccc(Cl)cc2)nn1 (stereo not drawn)	-28.2%
O=C(C/C(=N\NC(=O)c1ccccc1Br)C(F)(F)F)c1cccs1	-2.62%
Cc1cc(Cn2nnc(-c3ccc(Br)cc3)n2)cc(C)c1O	12.2%
COc1ccc(C2CC(c3ccc([N+](=O)[O-])cc3)=NN2C(=O)c2ccccc2)cc1OC (stereo not drawn)	-21.8%
COC(=O)CSc1nnc(-c2c[nH]c3ccccc23)o1	-3.69%
Cc1cc(C(F)(F)F)n(-c2nc(C(=O)NNS(=O)(=O)c3ccccc3)cs2)n1	-0.529%
COC(=O)C1CCN(C(=O)CN2C(=O)NC(CCc3ccccc3)C2=O)CC1 (stereo not drawn)	3.41%
CCOc1ccc(-n2c(O)c(C=Nc3ccc(N(CC)CC)cc3)c(=O)[nH]c2=O)cc1	8.93%
Cc1ccc(S(=O)(=O)c2nc(C(C)(C)C)oc2N2CCOCC2)cc1	-6.06%
O=C(CC1C(=O)NCCN1C(=O)Nc1ccc(C(F)(F)F)cc1)Nc1ccc(F)cc1 (stereo not drawn)	14.6%
CNC(C)C(=O)NC(C(=O)N1CCCC1C(=O)NNc1ccccc1)C(C)C.O=CO (stereo not drawn)	5.01%
COCCn1c(SCC(=O)Nc2nnc(C)s2)nnc1-c1ccco1	17.7%

Compound	hERG current change (%, negative = inhibition) at 10uM
COC(=O)[C@@]12CCCN1[C@H](c1ccc(-c3ccccc3)cc1)[C@H]1C(=O)N(C)C(=O)[C@H]12.O=C(O)C(F)(F)F	-14.2%
CSc1ncccc1C(=O)Nc1ncc(C)s1	15.1%
Cc1ccc2nc3c(cc(C(=O)NC4CCCC4)c(=N)n3C3CCCCC3)c(=O)n2c1	-77.2%
CCOc1ccc(OCCN2C(=O)c3ccccc3C2=O)cc1	21.6%
CC(C)C(=O)NC(c1ccc([N+](=O)[O-])cc1)c1c(O)ccc2ccccc12 (stereo not drawn)	-1.18%
CCN(CC)C(=O)c1sc2nc(-c3ccccc3)ccc2c1N	5.54%
CC1CC(C)CN(S(=O)(=O)c2ccc(C(=O)N3CCOCC3)cc2)C1 (stereo not drawn)	-2.44%
COc1cc(OC)cc(C(=O)Nc2ccc3c(c2)n(C)c(=O)n3C)c1	-1.51%
NC(=O)c1nn(-c2ccccc2)nc1N	0.947%
O=C(O)CCC(=O)Nc1cccc(C(=O)Nc2cccc(Cl)c2)c1	-0.759%
CCOC(=O)c1cc2ccccc2nc1C	5.32%
CCN1CCN(Cc2cc(Br)cc(Br)c2O)CC1	-50.6%
CC(C)OCCCN(C)C1CCN(S(=O)(=O)c2ccc(-c3cc(C(F)(F)F)no3)s2)CC1	-54.6%
Cc1ccc(-c2noc(CCC(=O)Nc3ccccc3C)n2)cc1	12.4%
CCOc1ccc(OCc2ccc(C(=O)N3CCCCC3)o2)cc1	-25.2%
CC1CCN(C(=S)c2ccc(-c3ccc(Cl)cc3Cl)o2)CC1	1.17%
CCOC(=O)C(=CNc1cc(C)ccc1-n1cccc1)C(=O)OCC	2.05%
Cc1ccc(NC(=O)CNC(=O)c2ccco2)cc1Cl	17%
COC(=O)c1ccc(Oc2nc3ccccc3n3c(C)nnc23)cc1	-1.15%
COc1ccc(NC(=S)N2c3ccccc3CC2C)cc1OC (stereo not drawn)	-5.96%
CCn1c(=O)c(C(=O)CN(C)Cc2cccc(OC)c2OC)c(N)n(Cc2ccccc2)c1=O	-50.3%
COc1ccc(-c2ccc(/C=N/NC(=O)Cc3nnc(N)s3)o2)cc1Cl	15%

Compound	hERG current change (%, negative = inhibition) at 10uM
COc1ccc(Cn2c(C3CC3)nc3ccc(NC(=O)C4CC4)cc3c2=O)cc1	5.63%
Nc1c(S(=O)(=O)c2ccccc2)c2nc3ccccc3nc2n1C1CC1	-2.42%
Cc1ccc(C)c2[nH]c(=O)c(CCNC(=O)c3ccc(S(=O)(=O)N4CCCC4)cc3)cc12	11.4%
Cn1cnnc1Sc1ccc(C(=O)NCCC23CC4CC(CC(C4)C2)C3)cc1[N+](=O)[O-]	12.9%
Cc1csc(NC(=O)CCCC(=O)c2ccccc2)n1	-8.48%
Cc1c(-c2ccccc2)c(=O)oc2ccc(O)cc12	13.8%
Cc1csc(=O)n1CC(=O)OCC(=O)NCc1ccccc1	8.37%
CC(=O)OCC[N+](C)(C)C.[Br-]	5.06%
O=C(Nc1ccncc1)c1ccc([N+](=O)[O-])cc1Cl	-3.15%
Cc1nnc(SCC(=O)NNC(=O)c2ccco2)n1-c1ccccc1	41.5%
CCN(CCO)C(=O)c1ccc2oc(Cc3ccc(Cl)cc3)nc2c1	7.92%
Cc1ccc([N+](=O)[O-])cc1N=C1C(=O)Nc2ccccc21	-20.5%
Cc1ccc(S(=O)(=O)N2CCC(C(=O)NNC(=O)c3ccccc3O)CC2)cc1C	-3.47%
CCOc1ncccc1C(=O)OCC(=O)c1c[nH]c2ccccc12	0.0876%
COc1ccccc1C(CNC(=O)c1cccc(S(=O)(=O)Nc2ccc(C)cc2)c1)N1CCCC1 (stereo not drawn)	-29.8%
CC(C)N(Cc1nc(-c2ccccc2)no1)C(=O)C(Cl)(Cl)Cl	15.6%
O=C(Nc1nnc(-c2cccc(F)c2)s1)Nc1ccccc1F	11.6%
CCN(CC)CCn1c(N)nc2ccccc21.Cl	15.4%
Nn1c(SC/C=C/c2ccccc2)nnc1-c1ccccn1	-15.3%
Cc1cccc(N2CCN(C(=S)NC3CCCCC3)CC2)c1C	4.4%
O=S(=O)(Nc1cccc(-c2cn3c(n2)SCC3)c1)c1ccccc1F	-11.8%
